These are yes or no findings as the source states them, for the method shown. In cells and extracts the contact can be indirect. Some entries that bind do so weakly or less than the wild type.
Assays:
[1] = target: T1, Bmi1 (mouse (endogenous in Ba/F3 cells and murine B-cell progenitors)) (UniProt P25916); assay: co-IP; cytoplasmic and nuclear fractions of empty vector or p190-BCR-ABL transduced Ba/F3 cells; anti-Vav3 or anti-Bmi1 antibody overnight at 4 °C, protein A/G Dynabeads 2 h, washed 3 times with 1X RIPA buffer; western blot
T1 sequence: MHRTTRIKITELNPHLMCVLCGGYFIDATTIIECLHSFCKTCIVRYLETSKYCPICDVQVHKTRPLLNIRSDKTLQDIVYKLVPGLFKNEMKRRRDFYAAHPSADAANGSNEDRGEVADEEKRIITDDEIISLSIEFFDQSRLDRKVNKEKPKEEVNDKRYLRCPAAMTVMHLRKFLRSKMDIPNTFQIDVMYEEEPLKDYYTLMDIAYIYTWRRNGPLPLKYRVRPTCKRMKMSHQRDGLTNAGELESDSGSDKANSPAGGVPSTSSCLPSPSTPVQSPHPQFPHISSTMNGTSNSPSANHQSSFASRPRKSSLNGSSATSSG

Sequences of proteins named here, by UniProt entry; tags and fusion partners are left off.
UniProt P00520: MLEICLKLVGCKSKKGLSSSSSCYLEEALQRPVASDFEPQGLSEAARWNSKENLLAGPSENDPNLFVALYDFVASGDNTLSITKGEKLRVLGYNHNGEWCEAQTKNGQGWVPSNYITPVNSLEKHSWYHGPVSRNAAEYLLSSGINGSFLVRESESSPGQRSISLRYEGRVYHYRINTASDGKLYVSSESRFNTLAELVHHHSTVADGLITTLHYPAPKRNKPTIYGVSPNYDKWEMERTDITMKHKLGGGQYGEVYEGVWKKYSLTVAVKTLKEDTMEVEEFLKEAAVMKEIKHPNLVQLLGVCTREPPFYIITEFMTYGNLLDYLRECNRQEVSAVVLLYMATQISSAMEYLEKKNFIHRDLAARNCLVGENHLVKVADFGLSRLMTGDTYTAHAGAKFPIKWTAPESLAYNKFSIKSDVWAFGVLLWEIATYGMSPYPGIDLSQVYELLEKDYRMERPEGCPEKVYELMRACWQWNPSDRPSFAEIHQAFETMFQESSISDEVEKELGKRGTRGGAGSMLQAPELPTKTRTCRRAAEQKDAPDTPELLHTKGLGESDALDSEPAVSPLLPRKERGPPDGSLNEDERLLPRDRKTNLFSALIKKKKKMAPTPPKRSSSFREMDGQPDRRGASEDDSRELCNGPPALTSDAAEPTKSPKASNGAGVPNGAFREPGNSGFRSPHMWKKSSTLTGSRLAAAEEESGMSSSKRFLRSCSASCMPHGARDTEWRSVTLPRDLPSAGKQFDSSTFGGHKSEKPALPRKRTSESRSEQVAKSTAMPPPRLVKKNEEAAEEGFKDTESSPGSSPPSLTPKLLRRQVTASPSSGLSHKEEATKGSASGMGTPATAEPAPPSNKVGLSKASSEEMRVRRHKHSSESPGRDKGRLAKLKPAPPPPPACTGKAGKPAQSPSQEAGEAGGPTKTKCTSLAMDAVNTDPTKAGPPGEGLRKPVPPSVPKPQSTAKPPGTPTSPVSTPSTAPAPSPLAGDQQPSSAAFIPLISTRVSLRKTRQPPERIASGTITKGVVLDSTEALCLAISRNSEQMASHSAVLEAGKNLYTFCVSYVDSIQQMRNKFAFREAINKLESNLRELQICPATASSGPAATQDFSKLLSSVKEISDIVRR

[2] = target: T1, Bmi1 (mouse (endogenous in Ba/F3 cells and murine B-cell progenitors)); assay: proximity ligation; Duolink PLA with rabbit anti-Vav3 and mouse anti-Bmi1 antibodies in fixed, permeabilised empty vector or p190-BCR-ABL transduced Ba/F3 cells; confocal microscopy
[3] = target: c-Abl (mouse (endogenous in murine B-cell progenitors)) (UniProt P00520); assay: proximity ligation; Duolink PLA with anti-Vav3 and anti-cAbl antibodies in B-cell progenitors from non-leukemic mice
[4] = target: T2, pleckstrin homology domain leucine-rich repeat protein phosphatase 2 (Phlpp2) (mouse (endogenous in murine B-cell progenitors)) (UniProt Q8BXA7); assay: proximity ligation; Duolink PLA in fixed, permeabilised primary murine B-cell progenitors on fibronectin-coated slides (empty vector or p190-BCR-ABL transduced; WT, Rac2-/-, or Vav3-/- transduced with empty vector, Vav3 FL or Vav3 N369A); confocal microscopy
T2 sequence: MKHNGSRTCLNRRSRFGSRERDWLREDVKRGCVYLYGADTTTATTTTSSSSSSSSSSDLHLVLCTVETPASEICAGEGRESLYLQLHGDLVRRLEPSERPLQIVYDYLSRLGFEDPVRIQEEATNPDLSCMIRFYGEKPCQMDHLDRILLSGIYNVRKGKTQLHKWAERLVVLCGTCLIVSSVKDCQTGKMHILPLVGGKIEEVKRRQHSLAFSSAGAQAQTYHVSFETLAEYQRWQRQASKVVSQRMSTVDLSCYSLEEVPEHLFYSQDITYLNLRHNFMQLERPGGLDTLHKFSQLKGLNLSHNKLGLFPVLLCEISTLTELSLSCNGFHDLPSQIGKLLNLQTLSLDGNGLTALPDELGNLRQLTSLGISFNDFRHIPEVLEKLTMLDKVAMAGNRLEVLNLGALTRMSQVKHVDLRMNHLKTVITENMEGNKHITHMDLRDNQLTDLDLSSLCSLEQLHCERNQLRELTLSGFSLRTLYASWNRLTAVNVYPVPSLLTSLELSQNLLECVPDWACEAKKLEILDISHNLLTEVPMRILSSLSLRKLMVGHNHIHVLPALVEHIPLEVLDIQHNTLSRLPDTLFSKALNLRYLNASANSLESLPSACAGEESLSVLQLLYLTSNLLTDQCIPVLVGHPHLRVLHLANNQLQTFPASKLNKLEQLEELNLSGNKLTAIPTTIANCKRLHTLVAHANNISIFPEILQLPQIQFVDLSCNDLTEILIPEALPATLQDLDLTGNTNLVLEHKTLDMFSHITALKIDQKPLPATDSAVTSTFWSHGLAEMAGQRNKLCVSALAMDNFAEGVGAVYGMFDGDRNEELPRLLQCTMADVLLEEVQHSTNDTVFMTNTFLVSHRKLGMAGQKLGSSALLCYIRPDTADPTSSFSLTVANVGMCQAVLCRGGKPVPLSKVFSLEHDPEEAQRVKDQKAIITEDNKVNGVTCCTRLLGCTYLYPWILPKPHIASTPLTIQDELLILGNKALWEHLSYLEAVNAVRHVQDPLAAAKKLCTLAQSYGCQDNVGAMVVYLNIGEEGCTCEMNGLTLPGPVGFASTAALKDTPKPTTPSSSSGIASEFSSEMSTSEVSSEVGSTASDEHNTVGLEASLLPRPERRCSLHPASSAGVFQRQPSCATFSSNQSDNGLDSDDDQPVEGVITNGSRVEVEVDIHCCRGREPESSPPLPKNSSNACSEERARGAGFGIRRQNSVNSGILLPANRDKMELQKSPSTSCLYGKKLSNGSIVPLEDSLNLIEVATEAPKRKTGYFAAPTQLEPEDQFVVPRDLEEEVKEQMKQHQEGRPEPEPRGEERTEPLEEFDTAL

[5] = target: T1, Bmi1 (mouse (endogenous in Ba/F3 cells and murine B-cell progenitors)); assay: as above

binding [1]: binds
binding [2]: binds
binding [3]: no binding
binding [4]: binds
binding [5]: binds
B1: Vav3 (protein, UniProt Q9R0C8 1-847)
chain: MEPWKQCAQWLIHSKVLPPNHRVTWDSAQVFDLAQTLRDGVLLCQLLNNLRPHSINLKEINLRPQMSQFLCLKNIRTFLAACCDTFGMRKSELFEAFDLFDVRDFGKVIETLSRLSRTPIALATGIRPFPTEESINDEDIYKGLPDLIDETRVEDEEDLYDCVYGEDEGGEVYEDLMKAEEAQQPKSQENDIRSCCLAEIRQTEEKYTETLESIEKYFMAPLKRFLTAAEFDSVFINIPDLVKVHRSLMQEIHDSIVNKDDQNLYQVFINYKERLVIYGQYCSGVESAISNLDYISKTKEDVKLKLEECSKRANNGKFTLRDLLVVPMQRVLKYHLLLQELVKHTHDPMEKANLKLALDAMKDLAQYVNEVKRDNETLREIKQFQLSIENLNQPVLLFGRPQGDGEIRITTLDKHTKQERHIFLFDLAVIVCKRKGDNYEMKEIIDLQQYKIANNPTTDKENKKWSYGFYLIHTQGQNGLEFYCKTKDLKKKWLEQFEMALSNIRPDYADSNFHDFKMHTFTRVTSCRVCQMLLRGTFYQGYLCFKCGAKAHKECLGRVDNCGRVNSVEQGPFKPPEKRTNGLRRASRQVDPGLPKMQVIRNYTGTPAPGLHEGPPLHIQAGDTVELLRGDAHSVFWQGRNLASGEVGFFPSDAVKPSPCVPKPVDYSCQPWYAGPMERLQAETELINRVNSTYLVRHRTKESGEYAISIKYNNEAKHIKILTRDGFFHIAENRKFKSLMELVEYYKHHSLKEGFRTLDTTLQFPYKEPEQPAGQRGNRTGNSLLSPKVLGIAIARYDFCARDMRELSLLKGDMVKIYTKMSANGWWRGEVNGRVGWFPSTYVEEDE

Source: paper PMC9160250, “Nuclear Vav3 is required for polycomb repression complex-1 activity in B-cell lymphoblastic leukemogenesis” (Nature Communications, 2022)
